In the RNAGym collection of RNA variant scans (doi:10.7554/elife.90254):
The source gives no read counts; variants with many changes may rest on few reads.

B1: LINE1-mini (parent)
chain: GGCAGAGCUCAACACAGCGUGGCAAAGUGGCUGUGGCUAGACUGCC

Variants of: B1
Assay: self-cleavage, relative activity (ratio to wild type); higher = more cleavage; in vitro, sequencing; the parent is a self-cleaving ribozyme

Variant | self-cleavage
G7A C8A U20C U34C C42A | 0.14
C8U C18U U34G | 0.08
A4G A14C A16C | 0.02
C10U G17U C18U C37U | 0.03
C13A G17U G36A | 0.04
G2A C8A C10A G21C G36A G44C | 0.05
G2A G30C C46U | 0.25
G7U G35U A39G | 0.05
A16G G19C C31A U32A G44C | 0.02
C3G G5C A6C C18G | 0.14
A4G U9A C13A A14U | 0.37
A11C G19A U28C G30A G33A | 0.02
A11C A14G A41U | 0.05
G2U G5U C8G U32A | 0.02
A11U A12U C31G | 0.02
G2A C8A U34C | 0.54
C8G G27U G30U U32G | 0.02
C3A G5C C23G C42G | 0.02
C3U U34A C37G | 0.01
G22U G27C G33C | 0.05
G5A A16U G36C A39G | 0.02
C18U C23U U28A G29C | 0.23
G1C A4U G7C | 0.13
A6U G7U U20C A41C | 0.15

Variant | self-cleavage
A6U A39U C42G U43C C46U | 0.03
G22U A25U G36A | 0.17
A12C G19A U34C G36C | 0.01
G27A C37A A41U | 0.1
G2U C3U A11C G22U U38G C46A | 0
C8A C15U U20C G21C A24G | 0.31
C18U G35U C46A | 0.01
U9C G17U U28C A41G G44A | 0.01
G1C C10A A12G | 0.01
G7C A12U G35U C45U | 0.08
G7A G21A G27C | 0.1
A12C A26C C31A | 0.01
G2U G5A C8A A16G C18U C31A U38G | 0.08
G35C U38C U43C | 0.02
C18A C23U A41U | 0.2
G7A A16C U34A | 0.03
A6U A24U U28G | 1.27
C10G A12U A26G | 0.02
A11U A12G G21A C23U G30U U34G | 0.01
A6U C13A G19A C31U | 0.05
C10U G21A C23G U34A G44C | 0.05
U20C U32A C42U | 0.04
G5C G40U A41U | 0.12
C13A G19U G40U | 0.01

Variant | self-cleavage
G5A C8A C23A U32A | 0.76
C10A C31U C42G | 0.02
U20C C31A C37A | 0.02
C3U G5U G30A | 0.15
A6C G7U A25C C45U | 0.01
G2U G5U A11G G29U C46A | 0.01
C8G C15U C23U | 0.36
C10U A26U G29C | 0.03
G2U C3U A14U U38C | 0.05
A4U C8G U9A C10U C45G | 0.07
A14C A16C U20C | 0.07
G2U C10U C37G | 0.01
G5C C45G C46A | 0.12
G2A G27C C37G | 0.16
G29U U38A G40C | 0.12
C3A A4C A6U G7A U32A C46A | 0.38
G1A G7C G33U | 0.31
G2C G7U G35A | 0.24
G1A C10U C18A C31A | 0.08
A26G G29C C46U | 1
A24U U34C U38C | 0.07
A4C U9A A24G U38C | 0.03
A12G G44U C45A | 0
C23U G35C U43G | 0

Variant | self-cleavage
C13U G21U G44U | 0.55
G2C C3G A4G C15U A16G G22A G36A C46U | 0.04
G21U C31G C37U | 0.06
A12U G22U U34G G40U G44A | 0.01
G2A U9C G21C | 0.12
C8G U9G G40A | 0.01
C8U G27A G29C C31G U38C | 0.03
G1U C15A G33A C37A | 0.09
C15G G17U C42U | 0.06
A4U C15U G22A C23U G33A A39U | 0.16
G19A G27A C31A | 1.65
C15G C18G G22U | 0.03
A6U C13G C18G G22C G29U | 0.03
C8U A11G G21C C23U G35A | 0.03
G2C G5U G27A C37A | 0.02
A14G G17A C18U A26U | 0.09
A4C C13A U34A C42G | 0.19
G1C C8G C15A G29C C42G | 0.01
C8U U32G G33C A41C | 0.01
G2U A26G G29A | 0.08
C23U C31U A41G | 0
A11G C23G G30U U34A G35A | 0.02
A26G C37A C46A | 0.06
G5U A16G G19C G33C U34C | 0.01

Variant | self-cleavage
G1A G29A G40A | 0.19
A4U G33U G40C A41U | 0.02
G17A G35U C42U | 0
C10G C18U G22A | 0.19
G21U G22U A39G | 0.07
G22C G29U C31A C45G | 0.01
C3U A26C C31A C37U | 0.17
A6U C10G G17U U34C | 0
A11C A16C U28G C45A | 0
A4U A11U C13U A26C G29U | 0.04
C8G C13G G21A | 0.04
U9G A11G C13G | 0.01
G7A U9A A11G C15U G19U U28A G29A | 0.01
G2A A14G U28A U43A G44U | 0.08
G5A G30A U32A G44A | 0.06
G1A G2A C18A G30A | 0.52
C18A A25U G40A | 0.03
G22U A24C G27C G29U G44U C45A | 0.13
G1A G17U G30C | 0.1
C3A G22A G40A | 1.42
G1A A12C C18U G35C C42U | 0.01
C3U G5U A39G | 0.76
A6G A14G U28G G36U | 0.01
C10A A14C U20C C23A G30U | 0.01

Variant | self-cleavage
C10A G33C C45U | 0.01
U9A G30U U38A | 0.19
G2A G7C A25U | 0.17
A14G U32C G36A A41C | 0.05
C3U U9A G17A C23G A39U | 0.05
G2C G5U G36C | 0.02
C8G U9C A14U G33C | 0
G2A C3A C8A A16C C37A A39G | 2.53
A11G C13A C31A G35C | 0.03
G1C A26U U34A | 0.01
C15U A24C C45A | 0.03
A6C A16C G40C | 0.06
G21C A26C C31A | 0.43
G7C U9A C18U | 0.04
G2U C3A G22U A26U G33A G36A U43G | 0
G1C G5C A16U G22U A26C G33C | 0.02
G2U G30U G33A | 0.08
A16G G19U G27U C31U G40U | 0.02
A4G G5A A6G G7C C8U U9C C10A | 0.01
G2U U9C A11U A26G A41C | 0.03
C15U G35C C42U C45A | 0
G22A G35A U38G A39G U43A C45U | 0.01
G7C C15U A41C G44C | 0.15
C10G G19A C45G | 0.07

Variant | self-cleavage
G17U G33C U38C C45G | 0.05
C3A U9G G35U G44U | 0.11
C13U C31U U34G | 0.07
C15U G30A C42G G44U C45U | 0.06
C8G G22C G36C | 0.06
C18U G22U C31U G33U | 0.03
G2U C8G G17U U43A | 0.01
C37A U43G G44C | 0.04
G1U G7A C10G A11U G19A G22U C42G | 0
A4U G5C A11C | 0.07
G5A A25U C37A | 0.08
G21U U34G A39C G44C | 0.02
G5C C8G C18G G29U C45A | 0.05
C10U A26G G33U | 0.02
G1A G40U C42G | 0.11
C15U C23U G30U | 0.57
G5A C15A C23U G27A | 0.05
A16U C23U G30A | 0.18
G7U A14C G35A G36A | 0.12
G1C G2C G7C G27U G33U U34G | 0.03
C15U C18A A25C U43A | 0
C15A G17A G40U | 0.02
C13U G35C G36U | 0.06
